# From PubChem BioAssay AID504466 (National Center for Advancing Translational Sciences (NCATS), 2011)
# Screen size: about 330,000 compounds; about 4,200 (1.3%) were called active. The shares of active, inactive and inconclusive entries below differ from those in the screen. Calls follow the shape of the dose curve; as a rule, active = well fitted activation curve with a large enough effect; inconclusive = small, poorly fitted or top-dose-only effect; inactive = no such curve, though single readings can be large or run the other way. Potencies beside an inconclusive call are fits to weak or partial responses and may not hold up.
# Assay: qHTS screen for small molecules that induce genotoxicity in human embryonic kidney (HEK293T) cells expressing luciferase-tagged ELG1; also: nearly all actives have a fitted effect of over 60% in size; as to activity change, positive = activation: % of control where 0% means no effect
# Settings: HEK293T ELG1-luciferase reporter, luminescence, 16 h; series mostly up to 46 µM; activity change, positive = activation: at the top concentration
# In short: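 Reporter readout depends on ELG1 protein level, which increases with genetic stress. After 16 hr compound exposure at 37 °C, luciferase activity was quantified using ONE-Glo.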
# Potency is read from the fitted curve at half-maximal effect; tags tell the direction and shape of the fitted curve.
SMILES,Potency,"activity change, positive = activation"
O=C(NCCc1ccc(F)cc1)c1coc(=O)c(Br)c1,"inconclusive: 23.1 µM [activator, partial curve, poor fit]",
CCN(CC(=O)NC1CCS(=O)(=O)C1)S(=O)(=O)c1ccc(Cl)cc1C(F)(F)F (stereo unspecified),,inactive: 1.08%
O[C@@H]1COC(Nc2ccc(N=Nc3ccccc3)cc2)C[C@@H]1O (stereo partly specified),"inconclusive: 20.6 µM [activator, single point]",
COc1cc(C(=S)N2CCN(c3cccc(Cl)c3)CC2)ccc1O,,inactive: -4.42%
CC1=NC(=O)C(N=Nc2cccc(O)c2)N1c1ccccc1 (stereo unspecified),active: 14.6 µM,
O=c1c(Cl)c(N2CCN(c3ccc(F)cc3)CC2)cnn1-c1nc2ccccc2s1,"inconclusive: 10.3 µM [activator, partial curve]",
Cc1ccc(-n2c(C)c(C)c3c(NCCCO)ncnc32)cc1,"inconclusive: 16.4 µM [activator, partial curve]",
Cc1cc(N2CCOCC2)nc2cc(O)ccc12,"inconclusive: 23.1 µM [activator, single point]",
CCCn1nc([N+](=O)[O-])c(C(C#N)c2nc3ccccc3s2)c(Cl)c1=O (stereo unspecified),,inactive: -19.4%
O=C(O)c1ccc2c(c1)C(=O)N(Cc1ccco1)C2=O,,inactive: -2.35%
COc1cccc(-c2noc(-c3ccoc3C)n2)c1,"inconclusive: 9.2 µM [activator, partial curve]",
Cc1cccc(C(=O)Nc2ccc3ccccc3c2)c1,"inconclusive: 2.06 µM [activator, full curve]",
CC(=O)NCCc1nc2cc(NC(=O)c3cccc([N+](=O)[O-])c3)ccc2n1C,"inconclusive: 23.1 µM [activator, partial curve]",
NC(=O)c1ccccc1N/C=C/C(=O)c1cccs1,active: 2.06 µM,
CCOc1ccccc1NC(=O)CN(c1ccc(OC)cc1)S(=O)(=O)c1c(C)[nH]c(=O)[nH]c1=O,,inactive: 1.02%
CCc1ccc2oc(-c3ccc(N)cc3)nc2c1,active: 0.206 µM,
Cc1csc(NC(=O)c2cccc(C)c2C)n1,"inconclusive: 20.6 µM [activator, partial curve, poor fit]",
CN(C)c1cccc(C(=O)Nc2nc3ccccc3[nH]2)c1,"inconclusive: 0.206 µM [activator, full curve, poor fit]",
CN(Cc1ccccc1)C(=O)COc1cc(=O)n(C)c2ccccc12,"inconclusive: 18.4 µM [activator, single point]",
COc1cccc(NC(=O)c2cnc[nH]2)c1,,inactive: 7.69%
Cc1ccc(CNc2nc3ccccc3n2C)cc1,"inconclusive: 0.651 µM [activator, single point]",
CCN(CC)C(=O)c1cc2sc3ccccc3c2s1,"inconclusive: 5.17 µM [activator, partial curve, poor fit]",
O=C(NCC(=O)N1CCN(Cc2ccccc2)CC1)c1cccs1,"inconclusive: 10.3 µM [activator, partial curve, poor fit]",

SMILES,Potency,"activity change, positive = activation"
Cc1ccc(NC(=O)NCc2cccnc2)cc1Cl,"inconclusive: 32.6 µM [activator, partial curve, poor fit]",
CCOc1cc2sc(N3CCC(C(=O)NCCCN4CCCC4=O)CC3)nc2cc1Br,,inactive: -2.92%
Nc1ncnc2c1ncn2CCOc1ccccc1,"inconclusive: 20.6 µM [activator, partial curve, poor fit]",
CC1CCN(c2ccc(C(=O)NCc3cccs3)cn2)CC1,"inconclusive: 23.1 µM [activator, partial curve, poor fit]",
Cc1cccc2cc3c(N)c(C(=O)N4CCOCC4)sc3nc12,"inconclusive: 5.17 µM [activator, single point]",
Cc1c(C(=O)Nc2ccccn2)oc2ccc(Br)cc12,active: 9.2 µM,
CC(=O)c1[nH]c(C)c(C(=O)N2CCCC(Nc3cccc(F)c3)C2)c1C (stereo unspecified),,inactive: 3.33%
Cc1ccc(O)c(NC(=O)c2cc(-c3ccccc3Cl)on2)c1,active: 16.4 µM,
O=C(Nc1ncc(Cc2ccccc2Cl)s1)C1CCCO1 (stereo unspecified),"inconclusive: 8.2 µM [activator, partial curve]",
CCOC(=O)N1CCN(c2c(NCc3ccc(F)cc3)c(=O)c2=O)CC1,"inconclusive: 25.9 µM [activator, partial curve, poor fit]",
CCOC(=O)c1c(-c2ccccc2)nc2ccc(C)cn12,"inconclusive: 2.91 µM [activator, single point]",
Cn1c(=O)n(C)c2cc(NC(=O)CSc3nnc(-c4ccccc4O)n3-c3ccccc3)ccc21,"inconclusive: 18.4 µM [activator, partial curve]",
CN(C)/C=C1/C=C(c2ccccc2)OC1=O,"inconclusive: 18.4 µM [activator, partial curve, poor fit]",
CCN(CC)C1CCN(C(=O)CCn2nnnc2CN2CCOCC2)C1 (stereo unspecified),,inactive: 0.922%
COc1ccc(C(=O)N/N=C2\SCC(=O)N2Cc2ccc3c(c2)OCO3)c(OC)c1,"inconclusive: 29.1 µM [activator, partial curve, poor fit]",
CC(C)N(C(=O)[C@H]1C[C@H](CC(=O)NCCC2=CCCCC2)C(=O)N2CCc3c([nH]c4ccc(Cl)cc34)[C@]12C)C(C)C,,inactive: -0.711%
O=C(CCc1nnc(-c2ccc(-c3ccccc3)cc2)o1)N1CCCCC1,"inconclusive: 6.51 µM [activator, partial curve, poor fit]",
CCNC(=S)NNC(=O)c1ccoc1C,,inactive: -0.235%
COC(=O)c1ccc(S(=O)(=O)N2CCC(O)CC2)n1C,,inactive: -0.833%
Cc1csc(NC(=O)c2ccoc2C)n1,"inconclusive: 20.6 µM [activator, partial curve, poor fit]",
O=C(NCc1ccc(F)cc1)c1cnn2ccccc12,"inconclusive: 2.59 µM [activator, partial curve, poor fit]",
CCOc1ccc(-c2nc(-c3cccs3)c(CC(=O)O)s2)cc1OC,"inconclusive: 16.4 µM [activator, partial curve, poor fit]",
COc1ccc(C(=O)Nc2ccc(Cl)cn2)cc1Cl,"inconclusive: 9.2 µM [activator, partial curve, poor fit]",
